Measured values as given in PubChem BioAssay AID1476 (National Center for Advancing Translational Sciences (NCATS), 2009).
Among all 200,000 compounds or so, about 4,500 (2.2%) were called active. The inconclusive results got no clear call from the source; some entries with a clear call stand among them for comparison. Calls follow the shape of the dose curve; as a rule, active = well fitted inhibition curve with a large enough effect; inconclusive = small, poorly fitted or top-dose-only effect, or effect the other way; inactive = flat fitted curve, though single readings scatter. Potencies beside an inconclusive call are fits to weak or partial responses and may not hold up.
Also: nearly all actives have a fitted effect of over 40% in size.
Potency is read from the fitted curve at half-maximal effect; tags tell the direction and shape of the fitted curve.

What follows are molecules tested against Cruzipain (Trypanosoma cruzi) (UniProt P25779) (assay: qHTS Assay for Promiscuous and Specific Inhibitors of Cruzain (without detergent)). Conditions: purified cruzain, Z-FR-AMC fluorescence, no detergent.
Chain of UniProt P25779 (P25779 whole entry, looked up): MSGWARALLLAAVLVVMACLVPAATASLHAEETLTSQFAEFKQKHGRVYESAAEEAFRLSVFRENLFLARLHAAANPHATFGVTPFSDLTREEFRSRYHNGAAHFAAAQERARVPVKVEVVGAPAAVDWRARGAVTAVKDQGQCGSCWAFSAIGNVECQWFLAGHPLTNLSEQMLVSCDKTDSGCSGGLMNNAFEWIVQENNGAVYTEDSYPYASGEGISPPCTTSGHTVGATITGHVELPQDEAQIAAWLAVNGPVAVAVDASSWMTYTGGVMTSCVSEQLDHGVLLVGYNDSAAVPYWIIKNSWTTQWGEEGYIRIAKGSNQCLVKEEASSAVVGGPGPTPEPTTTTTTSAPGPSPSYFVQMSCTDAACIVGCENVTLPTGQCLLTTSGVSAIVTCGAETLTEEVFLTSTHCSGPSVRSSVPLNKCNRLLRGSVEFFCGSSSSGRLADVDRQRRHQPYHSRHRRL
Description: Cruzain is a cysteine protease from the tropical parasite Trypanosoma cruzi. Dual qHTS experiment was performed against the NCGC compound collection in order to 1) identify novel inhibitors of the enzyme and 2) profile the compound collection for promiscuous inhibitors operating via colloidal aggregation (by performing detergent-free and detergent-containing comparison screens). Cruzain was assayed by the use of fluorogenic coumarin-based substrate Z-FR-AMC: proteolytic cleavage releases AMC, whose fluorescence is measured at 360 nm excitation and 450 nm emission. Purified cruzain was supplied by the labs of Prof. James McKerrow and Brian Shoichet, UC San Francisco.
This assay had 0.00005% Triton X-100 concentration. See also releated assay "qHTS Assay for Promiscuous and Specific Inhibitors of Cruzain (with detergent)" with 0.01% Triton X-100.
See following references for additional details:
Assay Provider: Shoichet, Brian; University of California, San Fancisco
Screening Center PI: Austin, C.P.
Screening Center: NIH Chemical Genomics Center [NCGC]
Buffer: 100 mM Sodium Acetate, pH 5.5, 5 mM DTT, Triton X-100 concentration: 0.01%.
Buffer in columns 3 and 4 as negative control (no enzyme).
Substrate solution: 2 uM final concentration of Z-FR-AMC (catalog number I-1160, Bachem) dispensed throughout the plate.
Enzyme: 1.5 nM Cruzain final concentration in columns 1, 2, 5-48. Column 1 is neutral (100% activity). Column 2 contained titration of covalent inhibitor K11777, starting concentration 1 mM, then 1:2 dilution in duplicate).
Three uL of enzyme or buffer were dispensed to 1536-well Greiner black solid bottom plates. Compounds and controls (23 nL) were transferred via Kalypsys PinTool. The plates were incubated for 15 min at room temperature, and then 1 uL of substrate solution was added to start the reaction. The plates were immediately transferred to and read 4 times every 30 seconds for 2 min on ViewLux High-throughput CCD imager (Perkin-Elmer) using 360 nm excitation and 450 nm emission fluorescence protocol. The fluorescence intensity difference between the third and the first time points (time lapse of 60 seconds) was used to compute reaction progress.
`CCCc1ccc(Oc2cc(C)nc(N3CCOCC3)n2)cc1` was tested, and the Potency was inconclusive: 39.8 µM [activator, single point]. With `COc1ccccc1-c1nc(NC2CC2)c2ccccc2n1` the max response, negative = inhibition was inactive: -4.16%. For `CSc1cccc(-n2cc(-c3ccc4c(c3)OCO4)[nH]c2=O)c1`, the Potency was active: 31.6 µM. In the case of `CCc1ccc(CCC(=O)Nc2nnc(C)s2)o1`, the Potency was inconclusive: 1.26 µM [inhibitor, single point]. `COc1ccc(C2=NN(CN3C(=O)C(=O)c4ccccc43)C(c3ccc(Br)cc3)C2)cc1` (stereo unspecified) was tested, and the Potency was inconclusive: 12.6 µM [inhibitor, partial curve, poor fit]. For `C/C(CC(=O)N(C(C)C)C(C)C)=N\NC(=O)COc1ccc(Br)cc1Br`, the Potency was inconclusive: 39.8 µM [activator, single point]. `O=C(c1cccc([N+](=O)[O-])c1)N1c2ncnn2C2(CCCCC2)[C@@H]2CCCC[C@@H]21` was tested, and the max response, negative = inhibition was inactive: -4.03%. With `CCCc1nnc(NC(=O)c2cccs2)s1` the max response, negative = inhibition was inactive: 0.875%. In the case of `COc1cccc(OCCCCn2c(-c3ccc(Cl)cc3)nc3ccccc3c2=O)c1`, the max response, negative = inhibition was inactive: -11.1%. `CC[C@@H]1C(c2ccc(F)cc2)=NN(c2ccc(Br)cc2)[C@H]1C(=O)N1CCOC1=O` was tested, and the Potency was inconclusive: 35.5 µM [inhibitor, single point]. With `Cc1cc(O)c(NC(=S)NC(=O)c2ccc(-c3ccc(Cl)cc3)o2)cc1C` the Potency was active: 15.8 µM. With `O=S(=O)(NCCSc1nnnn1-c1ccccc1)c1ccc(F)cc1` the max response, negative = inhibition was inactive: -16.2%. `O=C(Nc1nnc(SCc2ccc(F)cc2)s1)C1Cc2ccccc2CN1C(=O)c1ccco1` (stereo unspecified) was tested, and the Potency was inconclusive: 39.8 µM [inhibitor, single point]. With `COc1ccc(/C=C(/NC(=O)c2ccc(C)cc2)c2nc3ccccc3[nH]2)cc1OC` the Potency was inconclusive: 31.6 µM [activator, single point]. For `CCOc1ccc(-n2cc(C(=O)Nc3cccc(OC)c3)c3cc(OC)c(OC)cc3c2=O)cc1`, the Potency was inconclusive: 25.1 µM [activator, partial curve]. In the case of `CC1=CC(C)(C)Nc2ccc(OC(=O)CN3C(=O)c4cccc5cccc(c45)C3=O)cc21`, the Potency was active: 25.1 µM. `Nc1nc(-c2ccccc2)cc(-c2ccccc2O)n1` was tested, and the max response, negative = inhibition was inactive: -16.6%. `CSCCC(NS(=O)(=O)c1ccc2c(c1)oc(=O)n2C)C(=O)NCCc1ccc(C)cc1` (stereo unspecified) was tested, and the max response, negative = inhibition was inactive: -5.59%. For `N#Cc1ccc(-c2ccc(Cl)cc2)nc1Oc1ccc(F)cc1`, the Potency was active: 25.1 µM. With `CCS(=O)(=O)N1CCC(C(=O)NCCC(C)C)CC1` the max response, negative = inhibition was inactive: 1.58%. With `CCOC(=O)C1=C(C)Nc2sc(C(=O)c3ccc(Br)cc3)c(N)c2C1c1ccc(C(=O)OC)cc1` (stereo unspecified) the Potency was active: 10 µM. For `O=S(=O)(Nc1nc2ccccc2nc1Nc1cccc(S(=O)(=O)N2CCCCC2)c1)c1ccccc1`, the Potency was active: 15.8 µM. For `CCc1nc2nc(C)cc(Nc3ccc(OC)cc3)n2n1`, the max response, negative = inhibition was inactive: -1.97%. `O=C(/C=C/c1ccc(Cl)c([N+](=O)[O-])c1)Nc1ccc(N2CCCC2)cc1` was tested, and the Potency was active: 15.8 µM. `COc1cccc(CN(Cc2ccco2)c2cnc(S(C)(=O)=O)nc2C(=O)Nc2cccc(Cl)c2C)c1` was tested, and the Potency was inconclusive: 39.8 µM [inhibitor, single point]. For `CC(C)c1nc2sc3c(NCc4ccco4)ncnc3c2c2c1COC(C)(C)C2`, the Potency was inconclusive: 39.8 µM [activator, single point]. `Cc1csc(/N=C/c2ccc([N+](=O)[O-])cc2)n1` was tested, and the Potency was active: 20 µM. `COc1ccc(OC)c(NC(=S)N(CCc2c(C)[nH]c3ccc(C)cc23)Cc2cccs2)c1` was tested, and the Potency was active: 25.1 µM. For `COc1ccc(OC)c(NC(=O)c2cc3c(s2)-c2ccccc2SC3)c1`, the Potency was inconclusive: 31.6 µM [inhibitor, single point]. For `Cc1ccc(NC(=O)C(=O)NCCOc2ccccc2Cl)cc1`, the Potency was inconclusive: 31.6 µM [inhibitor, single point]. With `COCCCNC(=O)c1cc2n(n1)CCCN(Cc1ccc(C)cc1)C2=O` the max response, negative = inhibition was inactive: 2.16%. In the case of `CCOc1cccc2sc(Nc3nc4ccc(NC(C)=O)cc4s3)nc12`, the Potency was inconclusive: 25.1 µM [activator, partial curve]. With `CCOc1cc(/C=C2/C(=O)ON=C2C)ccc1OCc1ccccc1F` the Potency was inconclusive: 15.8 µM [activator, partial curve]. `COc1ccc(NC(=O)COC(=O)C(CC(C)C)N2C(=O)C3CC=CCC3C2=O)cc1Cl` (stereo unspecified) was tested, and the Potency was active: 10 µM. With `CCn1c(Cc2ccccc2)nnc1SCC(=O)Nc1nc2ccccc2s1` the Potency was inconclusive: 39.8 µM [inhibitor, single point]. For `COc1ccc(COC(=O)c2[nH]c3c(c2C)C(=O)CC(c2ccc(OC)c(OC)c2)C3)cc1` (stereo unspecified), the Potency was inconclusive: 25.1 µM [activator, single point]. With `CCN(CC)c1ccc(NC(=O)COc2ccccc2C#N)cc1S(=O)(=O)Nc1ccccc1OC` the Potency was inconclusive: 31.6 µM [inhibitor, single point]. With `COc1ccc(-c2nc(CN3CCC(C(=O)NCCCN4CCN(c5ccccc5F)CC4)CC3)c(C)o2)cc1OC` the max response, negative = inhibition was inactive: -5.67%. With `Cc1nc(-c2ccccc2)sc1-c1nc(-c2cccnc2)ncc1S(=O)(=O)c1ccccc1` the Potency was inconclusive: 39.8 µM [activator, single point]. In the case of `CCCc1nn(C)c(C(=O)Nc2cccc(CC)c2)c1Cl`, the Potency was inconclusive: 0.398 µM [inhibitor, partial curve]. For `O=C(/C=C/c1ccc(Cl)cc1)Nc1ccccc1N1CCOCC1`, the Potency was inconclusive: 39.8 µM [inhibitor, single point]. `Cc1ccc(NC(=O)CS(=O)(=O)c2nc(-c3ccc(C)cc3)cn2-c2ccc(C)cc2)cc1` was tested, and the Potency was active: 12.6 µM. In the case of `CCC(=O)Nc1cc(NC(=O)CSc2ncc(-c3ccc(F)cc3)n2Cc2ccco2)ccc1C`, the Potency was inconclusive: 39.8 µM [activator, single point]. For `CC1CCCCN1S(=O)(=O)c1ccc(C(=O)Nc2ccccc2-c2nc3ccccc3s2)cc1` (stereo unspecified), the Potency was inconclusive: 7.94 µM [inhibitor, single point]. With `Oc1ccc(/C=N/Nc2cc(N3CCCC3)nc(N3CCCC3)n2)cc1O` the Potency was inconclusive: 39.8 µM [inhibitor, single point]. `CCCCN(C)CCNC(=O)c1cc(=O)[nH]c2ccc(S(=O)(=O)N3CCCCCC3)cc12` was tested, and the max response, negative = inhibition was inactive: -0.442%. With `CC(C)C1Cc2c(sc3c2c(=O)n(Cc2ccccc2)c2nncn32)CO1` (stereo unspecified) the Potency was inconclusive: 25.1 µM [activator, single point]. With `O=S(=O)(c1ccccc1)N1CCN(c2nc(-c3cccs3)nc3ccccc23)CC1` the Potency was active: 15.8 µM. For `COc1ccc2c(c1)-c1c(ssc1=S)C(C)(C)N2S(=O)(=O)c1ccc(C)cc1`, the Potency was inconclusive: 39.8 µM [inhibitor, single point]. `COC(=O)C1=C(C)NC(=O)C1(NC(=O)CN1CCCC1=O)C(F)(F)F` (stereo unspecified) was tested, and the max response, negative = inhibition was inactive: 2.48%. For `C[C@@H](C(=O)Nc1ccc2ccccc2c1)[C@H]1C[C@]1(C)[C@H](NC(=O)c1ccccc1)c1ccccc1`, the Potency was inconclusive: 39.8 µM [inhibitor, single point]. For `CCN(C(=O)CSc1ncc(S(=O)(=O)c2ccc(C)c(Cl)c2)c(=O)[nH]1)c1cccc(C)c1`, the Potency was inconclusive: 3.16 µM [activator, single point]. For `O=C1CC(c2ccc(Br)cc2)NC(c2ccc(Br)cc2)C1c1ccccc1` (stereo unspecified), the Potency was inconclusive: 39.8 µM [inhibitor, single point]. With `Cc1cc(C)cc(NC(=O)/C=C/c2ccc([N+](=O)[O-])s2)c1` the Potency was inconclusive: 31.6 µM [inhibitor, single point]. In the case of `Cc1ccc(-n2nc(C)c(C3C(C#N)=C(N)OC4=C3C(=O)CC(C)(C)C4)c2Cl)cc1` (stereo unspecified), the Potency was inconclusive: 0.794 µM [inhibitor, partial curve]. In the case of `Cn1c(SCC(=O)c2cc3ccccc3o2)nnc1-c1ccccc1`, the max response, negative = inhibition was inactive: -8.95%. For `O=S(=O)(c1ccc2ccccc2c1)n1nc(-c2ccco2)nc1NCc1ccc(F)cc1`, the Potency was inconclusive: 39.8 µM [inhibitor, single point]. In the case of `N#CC(=C1CCCC1)c1nc(-c2ccccc2O)cs1`, the Potency was inconclusive: 25.1 µM [inhibitor, single point]. With `N#CCSc1nc2[nH]ncc2c(=O)n1-c1ccccc1Br` the Potency was inconclusive: 12.6 µM [activator, partial curve]. For `Cc1ccc(-c2nnc(-n3nnc4ccccc43)c3ccccc23)cc1`, the Potency was inconclusive: 31.6 µM [inhibitor, single point]. For `CCOc1ccc(OCC)c(NC(=O)c2cc(S(=O)(=O)N3CCCC3)cn2C)c1`, the max response, negative = inhibition was inactive: -1.98%. For `O=C(CC1SC(=Nc2cccc3ccccc23)N(Cc2ccccn2)C1=O)Nc1ccccc1Br` (stereo unspecified), the Potency was inconclusive: 39.8 µM [inhibitor, single point]. In the case of `COc1cc(OC)c2c(-c3cccc(-c4ccc(C(C)=O)cc4)c3)cc(=O)oc2c1`, the max response, negative = inhibition was inconclusive: -32% [inhibitor]. In the case of `CCOc1ccc(C(=O)N2CCC(c3nnc(-c4ccccc4OC)o3)CC2)cc1`, the Potency was inconclusive: 20 µM [activator, single point]. `N#Cc1ccccc1CN1C(=O)c2ccccc2Sc2ccc(C(=O)OCc3ccco3)cc21` was tested, and the Potency was active: 25.1 µM. In the case of `C/C(=N\NC(=O)c1c(Cl)c(C)nn1C)c1ccc(NC(=O)COc2ccc(Cl)cc2C)cc1`, the Potency was inconclusive: 12.6 µM [activator, partial curve].
